Source: US20240352066A1, “ANTIMICROBIAL COMPOUNDS AND THE METHOD OF USE” (priority 2021, published 2024)
≈ marks a conversion by molar mass, not a printed value. Not every detail of the peptide structures is certain; ends, links or a residue may be inferred. Where a SMILES comes first, the peptide text is derived from it. [ ]: non-standard residue; d: D form. N(tridecyl)Gly = CCCCCCCCCCCCCNCC(=O)O; Gly(N-2-aminoethyl) = NCCNCC(=O)O; Gly(N-cHex) = O=C(O)CNC1CCCCC1; Nlys = NCCCCNCC(=O)O

Legend:
[1] = test system: C. neoformans; assay type: cell-based, Cryptococcus neoformans; conditions: Example 1; RPMI-MOPS, 72 hours
Description: The minimum inhibitory concentration (MIC) of peptoids against fungal pathogens C. albicans and C. neoformans was determined following CLSI guidelines (CLSI. Reference method for broth dilution antifungal susceptibility testing of yeasts; approved standard-third edition; CLSI document M27-A3. (Clinical and Laboratory Standards Institute, 2008). […] This inoculant was diluted 1:100 into RPMI-MOPS and then further diluted 1:20 into RPMI-MOPS. 198 μL of inoculant was seeded into each well of a 96 well black-walled plate. 2-fold serial dilutions of 100× peptoid solutions were prepared in water and 2 μL of peptoid were added to each well in triplicate. […] MIC was defined as the lowest concentration of compound preventing fungal growth. This assay was repeated 3 times on separate days with each compound. […] The addition of 0.1 mL cell solution to 9.9 mL of RPMI-MOPS produced a 1:100 cell solution. After vortexing, 0.5 mL of the […] was added to 9.5 mL RPMI-MOPS to produce a 1:20 cell solution. 198 μL of the 1:20 solution was added to the wells of an opaque 96-well plate, apart from the wells designated for the medial control. […] Amphotericin B was used as a positive control, and sterile water was used for the vehicle control. The plates were incubated for 72 hours at 35° C. After incubation, the concentration of compound resulting in no visual growth was recorded as the MIC. […]

[2] = test system: C. albicans; assay type: cell-based, Candida albicans; conditions: RPMI-MOPS, 37° C., 24 hours
Description: 2-fold serial dilutions of 100× peptoid solutions were prepared in water and 2 μL of peptoid were added to each well in triplicate. […] MIC was defined as the lowest concentration of compound preventing fungal growth. This assay was repeated 3 times on separate days with each compound.

[3] = RMG8-8 parameters from previously published results; cited from earlier work
[4] = test system: C. albicans; assay: Peptoid library agar diffusion (PLAD) screening of library RGL8; assay type: cell-based, Candida albicans; conditions: RPMI-MOPS media
Text: Antimicrobial peptoids of the present disclosure may have biological activity. Biological activity can be antimicrobial activity against a microbe, e.g., a fungal pathogen, a bacterial pathogen, or a combination thereof. A peptoid library agar diffusion (PLAD) assay may be used to identify peptoids that have antimicrobial activity (Fischer et al., ACS Comb. Sci. 18, 287-291 (2016); Corson et al., ACS Med. Chem. Lett. 7, 1139-1144 (2016); Turkett et al., ACS Comb. Sci. 18, 287-291 (2016)). The PLAD assay uses a PLAD chemical linker. […] Beads containing the PLAD linked peptoids are embedded in an agar medium where the agar medium is inoculated with the microbe of interest. The β-strand peptoid is released by a reducing reagent. The reducing agent cleaves a disulfide within the PLAD linker, allowing the β-strand peptoid to interact with microbes around the bead. If the released peptoid has antimicrobial activity, a zone of inhibited growth will be present. The α-strand peptoid remains attached to the bead during the screening process. […] The chemical cleavage of the α-strand peptoid is be accomplished at a C-terminal methionine of the PLAD linker using cyanogen bromide. […] The PLAD assay may be adapted to screen a peptoid of interest against different types of microbes of interest through slight modifications of the assay parameters. […]

For CCCCCCCCCCCCCNCC(=O)N(CC(=O)N(CCCCN)CC(=O)N(CCN)CC(=O)N(CC(N)=O)C1CCCCC1)C1CCCCC1 [RMG8-8, Ntri-Ncha-Nlys-Nae-Ncha] (H-[N(tridecyl)Gly][Gly(N-cHex)][Nlys][Gly(N-2-aminoethyl)][Gly(N-cHex)]-NH2), the “MIC C. neoformans” value [1] is listed as 1.56 µg/mL (≈ 2.04 µM), the “MIC C. albicans” value [2] is listed as 25 µg/mL (≈ 32.8 µM) and the “% ACN” value [3] is listed as 70.0%. For the same compound, the “PLAD screening result (zone of inhibited fungal growth)” value [4] was “hit”.
